Drawing on the GPR68 mutational scans of Howard et al. (2025), this text covers cAMP reporter score and surface expression score for four variants.

B1: GPR68, Q15743 (parent)
chain: MGNITADNSSMSCTIDHTIHQTLAPVVYVTVLVVGFPANCLSLYFGYLQIKARNELGVYLCNLTVADLFYICSLPFWLQYVLQHDNWSHGDLSCQVCGILLYENIYISVGFLCCISVDRYLAVAHPFRFHQFRTLKAAVGVSVVIWAKELLTSIYFLMHEEVIEDENQHRVCFEHYPIQAWQRAINYYRFLVGFLFPICLLLASYQGILRAVRRSHGTQKSRKDQIQRLVLSTVVIFLACFLPYHVLLLVRSVWEASCDFAKGVFNAYHFSLLLTSFNCVADPVLYCFVSETTHRDLARLRGACLAFLTCSRTGRAREAYPLGAPEASGKSGAQGEEPELLTKLHPAFQTPNSPGSGGFPTGRLA

Scores with a large standard error are left out. Not listed are two conditions whose scores span a narrow range. Names with del lack the residues named; names with ins carry added residues between the positions named. For some assays here: The concentration of ogerin is not given here.

The variants in series [1] derive from B1. Briefly: cAMP reporter score (Enrich2 score, wild type = 0); higher = more signal; HEK293T, FACS bins.
Series [2] covers variants of B1. The series is described as follows: surface expression score (Enrich2 score, wild type = 0); higher = more signal; HEK293T, FACS bins.

As to MGNITADNSSMSCTIDHTIHQTLAPVVYVTVLVVGFPANCLSLYFGYLQIKARNELGVYLCNLTVADLFYICSLPFWLQYVLQHDNWSHGDLSCQVCGILLYENIYISVGFLCCISVDRYLAVAHPFRFHQFRTLKAAVGVSVVIWAKELLTSIYFLMHEEVIEDENQHRVCFEHYPIQAWQRARNYYRFLVGFLFPICLLLASYQGILRAVRRSHGTQKSRKDQIQRLVLSTVVIFLACFLPYHVLLLVRSVWEASCDFAKGVFNAYHFSLLLTSFNCVADPVLYCFVSETTHRDLARLRGACLAFLTCSRTGRAREAYPLGAPEASGKSGAQGEEPELLTKLHPAFQTPNSPGSGGFPTGRLA [I185R], the cAMP reporter score in series [1] (pH 5.5) is -0.801; in series [1] (pH 6), -0.647; in series [1] (pH 6, modulator: ogerin), -2.52; in series [1] (pH 6.5, modulator: ogerin), -1.07. Besides, in series [2], the surface expression score came out at 0.873.
For MGNITADNSSMSCTIDHTIHQTLAPVVYVTVLVVGFPANCLSLYFGYLQIKARNELGVYLCNLTVADLFYICSLPFWLQYVLQHDNWSHGDLSCQVCGILLYENIYISVGFLCCISVDRYLAVAHPFRFHQFRTLKAAVGVSVVIWAKELLTSIYFLMHEEVIEDENQHRVCFEHYPIQAWQRAPNYYRFLVGFLFPICLLLASYQGILRAVRRSHGTQKSRKDQIQRLVLSTVVIFLACFLPYHVLLLVRSVWEASCDFAKGVFNAYHFSLLLTSFNCVADPVLYCFVSETTHRDLARLRGACLAFLTCSRTGRAREAYPLGAPEASGKSGAQGEEPELLTKLHPAFQTPNSPGSGGFPTGRLA [I185P] the same measures were 0.818, 0.416, 0.536, 0.102 and -1.13.
As for MGNITADNSSMSCTIDHTIHQTLAPVVYVTVLVVGFPANCLSLYFGYLQIKARNELGVYLCNLTVADLFYICSLPFWLQYVLQHDNWSHGDLSCQVCGILLYENIYISVGFLCCISVDRYLAVAHPFRFHQFRTLKAAVGVSVVIWAKELLTSIYFLMHEEVIEDENQHRVCFEHYPIQAWQRAQNYYRFLVGFLFPICLLLASYQGILRAVRRSHGTQKSRKDQIQRLVLSTVVIFLACFLPYHVLLLVRSVWEASCDFAKGVFNAYHFSLLLTSFNCVADPVLYCFVSETTHRDLARLRGACLAFLTCSRTGRAREAYPLGAPEASGKSGAQGEEPELLTKLHPAFQTPNSPGSGGFPTGRLA [I185Q], the cAMP reporter score in series [1] (pH 5.5) was -1.04; in series [1] (pH 6), -0.655; in series [1] (pH 6, modulator: ogerin) it was -1.03; in series [1] (pH 6.5, modulator: ogerin) it was -0.391. The surface expression score in series [2] came out at 1.54.
Regarding MGNITADNSSMSCTIDHTIHQTLAPVVYVTVLVVGFPANCLSLYFGYLQIKARNELGVYLCNLTVADLFYICSLPFWLQYVLQHDNWSHGDLSCQVCGILLYENIYISVGFLCCISVDRYLAVAHPFRFHQFRTLKAAVGVSVVIWAKELLTSIYFLMHEEVIEDENQHRVCFEHYPIQAWQRASNYYRFLVGFLFPICLLLASYQGILRAVRRSHGTQKSRKDQIQRLVLSTVVIFLACFLPYHVLLLVRSVWEASCDFAKGVFNAYHFSLLLTSFNCVADPVLYCFVSETTHRDLARLRGACLAFLTCSRTGRAREAYPLGAPEASGKSGAQGEEPELLTKLHPAFQTPNSPGSGGFPTGRLA [I185S], the cAMP reporter score in series [1] (pH 5.5) was 0.438; in series [1] (pH 6), -0.378; in series [1] (pH 6, modulator: ogerin) it was 0.493; in series [1] (pH 6.5, modulator: ogerin) it was -0.111. Besides, the surface expression score in series [2] was 0.099.
